# Where “and” joins values, the source holds several entries; their conditions need not be identical. Equal values may be shown once. The campaign covered roughly 200,000 compounds. About 4,500 (2.2%) were called active. The shares of active, inactive and inconclusive entries below differ from those in the screen. The call rests on the fitted dose curve; in most records, active means well fitted inhibition curve with a large enough effect; inconclusive means small, poorly fitted or top-dose-only effect, or effect the other way; inactive means flat fitted curve, though single readings scatter. Potencies of inconclusive entries are doubtful fits and often do not repeat.
# Target: Cruzipain (Trypanosoma cruzi) (UniProt P25779)
# UniProt P25779, sequence (P25779 whole entry, looked up): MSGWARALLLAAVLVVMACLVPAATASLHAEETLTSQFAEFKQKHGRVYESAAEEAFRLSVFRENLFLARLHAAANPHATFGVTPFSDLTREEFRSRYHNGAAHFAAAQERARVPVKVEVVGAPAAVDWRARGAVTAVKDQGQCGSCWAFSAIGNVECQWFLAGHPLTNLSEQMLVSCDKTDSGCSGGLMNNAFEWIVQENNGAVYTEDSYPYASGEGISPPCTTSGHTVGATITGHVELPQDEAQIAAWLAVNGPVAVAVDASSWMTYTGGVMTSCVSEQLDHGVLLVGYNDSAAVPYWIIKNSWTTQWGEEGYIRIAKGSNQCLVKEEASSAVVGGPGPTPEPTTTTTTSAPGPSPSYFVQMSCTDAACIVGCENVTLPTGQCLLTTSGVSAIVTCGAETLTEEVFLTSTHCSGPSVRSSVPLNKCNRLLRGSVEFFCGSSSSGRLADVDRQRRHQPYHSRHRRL
# Assay: qHTS Assay for Promiscuous and Specific Inhibitors of Cruzain (without detergent); further: nearly all actives have a fitted effect of over 40% in size;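 on max response, negative = inhibition: plate controls were enzyme without inhibitor for no effect and buffer without enzyme for full effect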
# Conditions: purified cruzain, Z-FR-AMC fluorescence, no detergent
# Outline: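 Purified cruzain at 1.5 nM, pre-incubated 15 min with compound at room temperature in 100 mM sodium acetate pH 5.5, 5 mM DTT, 0.00005% Triton X-100. Reaction started with 2 uM Z-FR-AMC; AMC fluorescence increase over 60 s gives rate.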
# Potency means the concentration at half of the fitted maximal effect; tags describe the fitted curve by direction and shape.
Compound,Potency,"max response, negative = inhibition"
CCSc1nc2ccccc2c(OCc2ccc(Cl)cc2)c1C(=O)OC,"inconclusive: 31.6 µM [inhibitor, single point]",–
COc1cc2nc(SCC(=O)NCCc3ccccc3)n(Cc3ccco3)c(=O)c2cc1OC,"inconclusive: 39.8 µM [activator, single point]",–
Nc1nsc2ccccc12,–,inactive: -28.3%
CCOC(=O)N1CCN(C(=O)c2oc3ccc(S(=O)(=O)N4CCCCC4)cc3c2C)CC1,"inconclusive: 25.1 µM [activator, single point]",–
Cc1cccc(NC(=O)CSC2=Nc3ccccc3C3=NC(CCC(=O)NCc4ccco4)C(=O)N23)c1 (configuration not stated),–,inactive: 21.4%
COc1ccc(OC)c(NC(=O)CSC2=Nc3ccccc3C3=NC(CC(=O)NCCc4ccccc4)C(=O)N23)c1 (configuration not stated),"inconclusive: 39.8 µM [activator, single point]",–
COC(=O)c1c(NC(=O)c2ccccc2N(C)S(=O)(=O)c2ccccc2)sc2c1CCCC2,active: 25.1 µM,–
C[C@@H]1Oc2ccccc2C=C1/C=C/C(=O)O,"inconclusive: 25.1 µM [inhibitor, single point]",–
Clc1ccc(CSc2nnc(-c3cccnc3)n2Cc2ccco2)c(Cl)c1,"inconclusive: 39.8 µM [activator, single point]",–
CCn1nc(C)c2c(-c3ccccc3)cc(=O)n(C(C)C(=O)NCCc3ccc(Cl)cc3)c21 (configuration not stated),"inconclusive: 31.6 µM [activator, single point]",–
O=S(=O)(c1ccc(-c2cnc(C3CC3)o2)cc1)N1CCN(c2ccc(F)cc2)CC1,"inconclusive: 39.8 µM [activator, single point]",–
Cc1ccc2nc(-c3cccc(NC(=O)c4ccco4)c3)[nH]c2c1,"inconclusive: 31.6 µM [inhibitor, single point]",–
CCCC1O[C@@H]2CC3C4CCC5=CC(=O)C=C[C@]5(C)C4C(OC(C)=O)C[C@]3(C)[C@]2(C(=O)COC(C)=O)O1 (some centres not stated),"inconclusive: 25.1 µM [activator, single point]",–
COC(=O)c1cc(Cl)c(NC(=O)c2cc3ccccc3o2)cc1OC,"inconclusive: 3.16 µM [activator, single point]",–
COc1cc(OC)cc(C(=O)N/N=C/c2ccc(OC)c(COc3ccc(F)cc3)c2)c1,–,inactive: -23.4%
O=[N+]([O-])c1ccc(NNC(=S)Nc2ccc(F)cc2)cc1,"inconclusive: 31.6 µM [inhibitor, single point]",–
COc1ccc(CNC(=O)CN2C(=O)CCn3nc(-c4cn(C)c5ccccc45)cc32)cc1,"inconclusive: 39.8 µM [activator, single point]",–
CC(=O)Nc1sc2c(c1C(c1ccccc1)N1CCOCC1)CCCC2 (configuration not stated),"inconclusive: 39.8 µM [activator, single point]",–
COc1cc2cc(CN(Cc3cccnc3)C(=O)NCc3ccccc3)c(=O)[nH]c2cc1OC,"inconclusive: 0.0063 µM [activator, full curve, poor fit]",–
COc1ccc(OC)c(NC(=O)CSc2nnc(CNC(=O)COc3ccc(Cl)cc3)o2)c1,"inconclusive: 31.6 µM [activator, single point]",–
Cc1ccc2c(c1)cc1c(=O)n(Cc3ccccc3Cl)nc(C)n12,–,inactive: -3.66%

Compound,Potency,"max response, negative = inhibition"
C=CCn1c(SCC(=O)Nc2nc3ccccc3s2)nnc1-c1ccccc1O,"inconclusive: 39.8 µM [inhibitor, single point]",–
CCn1c(=O)c2sccc2n2c(CCC(=O)Nc3ccc(F)cc3)nnc12,–,inactive: 3.38%
Cc1ccc(C)c(N2CCN(C(=O)c3ccc(Cn4c(=O)[nH]c5ccccc5c4=O)cc3)CC2)c1,–,inactive: -3.05%
CNC(=S)N/N=C/c1cc(C)n(-c2ccc(Cl)c(Cl)c2)c1C,active: 31.6 µM,–
COc1ccc2c(c1)c(N1CCCC1=O)c(C(=O)Nc1cc(C)c(Cl)cc1OC)n2C,"inconclusive: 39.8 µM [activator, single point]",–
CC(=O)c1cccc(NC(=O)C(OC(=O)c2ccccc2NS(=O)(=O)c2cccs2)c2ccccc2)c1 (configuration not stated),active: 7.94 µM,–
O=C(c1ccco1)N1CCC2(CCCN(c3ncccn3)C2)CC1,–,inactive: -1.4%
O=C1Nc2ccccc2C(O)(C(=O)NCc2ccco2)N1c1ccc(Cl)cc1 (configuration not stated),–,inactive: -4.89%
CC(C)Oc1ccc(C(=O)NCC(c2ccc(N(C)C)cc2)N2CCc3ccccc32)cc1 (configuration not stated),"inconclusive: 15.8 µM [inhibitor, partial curve, poor fit]",–
COc1ccc(CNC(=O)C(C)NC(=O)c2cc3ccccc3o2)cc1 (configuration not stated),"inconclusive: 0.794 µM [inhibitor, full curve, poor fit]",–
CCOc1ccc(N(CC(=O)Nc2ccc(OC)cc2)S(=O)(=O)c2ccc(Cl)cc2)cc1,–,inactive: 1.61%
Cc1sc2nc(CN3CCOCC3)nc(Oc3ccc(NC(=O)c4ccco4)cc3)c2c1C,"inconclusive: 31.6 µM [activator, single point]",–
O=c1c2ccccc2nc(SCc2ccccc2Cl)n1Cc1ccccc1,"inconclusive: 39.8 µM [inhibitor, single point]",–
CCC(C)(C)c1nnc(NC(=O)c2ccc([N+](=O)[O-])cc2)s1,"inconclusive: 31.6 µM [inhibitor, single point]",–
Cc1nc(-c2ccc(F)cc2)sc1CCNC(=O)c1cccs1,–,inactive: -0.484%
Cc1ccc(C)c(NC(=O)Cn2c(SCC(=O)NCc3ccccc3)nc3ccccc32)c1,–,inactive: -7.89%
CCOC(=O)c1c(N)n(-c2ccc(CC)cc2)c2nc3ccccc3nc12,"inconclusive: 12.6 µM [activator, partial curve]",–
COC(=O)Cn1c(C(=O)N2CCCC2)cc2c1C[C@H]1CN(C(=O)c3ccccc3)[C@@](Cc3ccc(F)cc3)(C(=O)OC)[C@@H]21,"inconclusive: 15.8 µM [activator, partial curve] and inconclusive: 7.94 µM [activator, full curve]",–
Cc1ccccc1-n1c(SCC(=O)NC(N)=O)nc2sc(-c3ccccc3)cc2c1=O,"inconclusive: 39.8 µM [inhibitor, single point]",–
O=C(NCCc1csc(-c2ccc(C(F)(F)F)cc2)n1)C(=O)Nc1ccc(F)c(Cl)c1,–,inactive: -2.67%
CCOC(=O)c1cc(C(=O)c2cccs2)n2ccc(C(C)=O)cc12,"inconclusive: 39.8 µM [activator, single point]",–

Compound,Potency,"max response, negative = inhibition"
O=C(O)CSc1nc(-c2ccc(Cl)cc2)nc2c1oc1ccccc12,"inconclusive: 39.8 µM [activator, single point]",–
N#C/C(=C\c1ccc(-c2ccc(S(=O)(=O)N3CCOCC3)cc2)o1)C(=O)NC1CC1,"inconclusive: 39.8 µM [activator, single point]",–
CS(=O)(=O)N(CCc1ccccc1)CC(=O)N1CCN(c2ccc(F)cc2)CC1,"inconclusive: 31.6 µM [activator, single point]",–
Cc1c(S(=O)(=O)N2CCN(C(c3ccccc3)c3ccccc3)CC2)c(=O)n(C)c(=O)n1C,"inconclusive: 39.8 µM [activator, single point]",–
CCOC(=O)c1ccc2ncc(C(=O)OCC)c(Nc3ccc(N4CCOCC4)cc3)c2c1,"inconclusive: 39.8 µM [activator, single point]",–
CCSc1nnc(NC(=O)CSc2nnc(CNC(=O)c3cc(OC)c(OC)c(OC)c3)o2)s1,"inconclusive: 12.6 µM [activator, single point]",–
COc1ccccc1CC(=O)Nc1ccc([N+](=O)[O-])cc1OC,–,inactive: -6.07%
Cc1cc(NS(=O)(=O)c2ccc(NC(=O)COc3ccccc3Br)cc2)no1,–,inactive: -15.5%
COc1ccc(/C=C2/S/C(=N/N=C3\CC4CCC3(C)C4(C)C)NC2=O)cc1 (configuration not stated),"inconclusive: 39.8 µM [inhibitor, single point]",–
Cc1ccc(S(=O)(=O)N2CCC(=O)N(C(COC(=O)Nc3ccccc3)Cc3ccccc3)CC2)cc1 (configuration not stated),"inconclusive: 35.5 µM [inhibitor, single point]",–
CSc1ccc(S(=O)(=O)Nc2ccc(S(=O)(=O)Nc3ccc(C)cc3)cc2)cc1,"inconclusive: 39.8 µM [activator, single point]",–
CCn1cc(C(=O)N2CCN(c3ccccc3)CC2)c(=O)c2cc(S(=O)(=O)N(C)C)ccc21,"inconclusive: 39.8 µM [activator, single point]",–
CCOc1cc(/C=N\NC(=O)Cn2nc([N+](=O)[O-])cc2C)ccc1OCc1cccc2ccccc12,active: 12.6 µM,–
Cc1ccc(Nc2nc(N)nc(CSc3nc4ccccc4s3)n2)cc1,"inconclusive: 31.6 µM [inhibitor, single point]",–
CCOc1cc2nc3c4ccccc4n(C)c3nc2cc1OCC,"inconclusive: 20 µM [activator, partial curve]",–
CCOc1ccc(-c2nn(-c3ccccc3)cc2/C=C2\SC(=S)N(Cc3ccco3)C2=O)cc1,active: 10 µM,–
O=C(CCc1ccccc1)NC1CC(=O)N(c2cccc(F)c2)C1 (configuration not stated),–,inactive: 5.15%
Cc1ccc(-c2cc(-c3ccccc3)c(C#N)c(N)n2)o1,"inconclusive: 3.16 µM [activator, full curve]",–
O=C(CCC1N=C2c3ccccc3N=C(SCc3ccc(Cl)cc3)N2C1=O)NCc1cccs1 (configuration not stated),–,inactive: 13.2%
CCCCN(CCCC)S(=O)(=O)c1ccc(NC(=O)CN2CCOCC2)cc1,"inconclusive: 31.6 µM [activator, single point]",–

# Source: PubChem BioAssay AID1476 (National Center for Advancing Translational Sciences (NCATS), 2009)
